# Reference: the supplement of paper PMC8728848
# The other results are listed elsewhere or left out.
# B1: IRp60B (Homo sapiens), Q9UGN4-3 (protein)
# chain: MWLPWALLLLWVPAGDHSELSQNPKQAATQSELHYANLELLMWPLQEKPAPPREVEVEYSTVASPREELHYASVVFDSNTNRIAAQRPREEEPDSDYSVIRKT
# Legend:
# Experiment in all cases: glycan array binding signal (z-score within array); higher = stronger binding
# Conditions in all cases: glycan notation: IUPAC condensed, linker removed
# Fuc(a1-2)Gal = target: Fuc(a1-2)Gal
# Method in brief: (§1)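 The binding signal is a Z-score computed within each array. Data were drawn from 3228 arrays in the Consortium for Functional Glycomics database, restricted to those with a known protein sequence. Scores were averaged over arrays of the same protein sequence at different concentrations or buffers, and over linkers, and negative values can be taken as non-binding.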
# Fuc(a1-2)Gal(b1-3)GalNAc = target: Fuc(a1-2)Gal(b1-3)GalNAc
# Method in brief: as §1
# [1] = target: Fuc(a1-2)Gal(b1-3)GalNAc(b1-3)Gal
# Method in brief: as §1
# [2] = target: Fuc(a1-2)Gal(b1-3)GalNAc(b1-3)Gal(a1-4)Gal(b1-4)Glc
# Method in brief: as §1
# [3] = target: Fuc(a1-2)Gal(b1-3)GalNAc(b1-4)[Neu5Ac(a2-3)]Gal(b1-4)Glc
# Method in brief: as §1
# Fuc(a1-2)Gal(b1-3)GlcNAc = target: Fuc(a1-2)Gal(b1-3)GlcNAc
# Method in brief: as §1
# [4] = target: Fuc(a1-2)Gal(b1-3)[Fuc(a1-4)]GlcNAc
# Method in brief: as §1
# Fuc(a1-2)Gal(b1-4)Glc = target: Fuc(a1-2)Gal(b1-4)Glc
# Method in brief: as §1
# Fuc(a1-2)Gal(b1-4)GlcNAc = target: Fuc(a1-2)Gal(b1-4)GlcNAc
# Method in brief: as §1
# [5] = target: Fuc(a1-2)Gal(b1-4)GlcNAc(b1-3)Gal(b1-4)GlcNAc
# Method in brief: as §1
# [6] = target: Fuc(a1-2)Gal(b1-4)GlcNAc(b1-3)Gal(b1-4)GlcNAc(b1-3)Gal(b1-4)GlcNAc
# Method in brief: as §1
# [7] = target: Fuc(a1-2)Gal(b1-4)[Fuc(a1-3)]GlcNAc
# Method in brief: as §1
# Fuc(a1-2)GlcNAc = target: Fuc(a1-2)GlcNAc
# Method in brief: as §1
# Fuc(a1-2)[Gal(a1-3)]Gal = target: Fuc(a1-2)[Gal(a1-3)]Gal
# Method in brief: as §1
# [8] = target: Fuc(a1-2)[Gal(a1-3)]Gal(b1-4)GlcNAc
# Method in brief: as §1
# [9] = target: Fuc(a1-2)[Gal(a1-4)]Gal(b1-4)GlcNAc
# Method in brief: as §1
# [10] = target: Fuc(a1-2)[GalNAc(a1-3)]Gal
# Method in brief: as §1
# [11] = target: Fuc(a1-2)[GalNAc(a1-3)]Gal(b1-4)GlcNAc
# Method in brief: as §1
# [12] = target: Fuc(a1-2)[GalNAc(a1-4)]Gal(b1-4)GlcNAc
# Method in brief: as §1
# [13] = target: Fuc(a1-2)[GalNAc(b1-3)]Gal
# Method in brief: as §1
# Fuc(a1-3)GlcNAc = target: Fuc(a1-3)GlcNAc
# Method in brief: as §1
# [14] = target: Fuc(a1-3)[Gal(b1-4)]GlcNAc
# Method in brief: as §1
# [15] = target: Fuc(a1-3)[Gal(b1-4)]GlcNAc(b1-3)Gal(b1-4)[Fuc(a1-3)]GlcNAc
# Method in brief: as §1
# [16] = target: Fuc(a1-3)[Gal(b1-4)]GlcNAc(b1-3)Gal(b1-4)[Fuc(a1-3)]GlcNAc(b1-3)Gal(b1-4)[Fuc(a1-3)]GlcNAc
# Method in brief: as §1
# [17] = target: Fuc(a1-3)[Gal3S(b1-4)]GlcNAc
# Method in brief: as §1
# Fuc(b1-3)GlcNAc = target: Fuc(b1-3)GlcNAc
# Method in brief: as §1
# Gal(a1-2)Gal = target: Gal(a1-2)Gal
# Method in brief: as §1
# Gal(a1-3)Gal = target: Gal(a1-3)Gal
# Method in brief: as §1
# Gal(a1-3)Gal(b1-4)Glc = target: Gal(a1-3)Gal(b1-4)Glc
# Method in brief: as §1
# Gal(a1-3)Gal(b1-4)GlcNAc = target: Gal(a1-3)Gal(b1-4)GlcNAc
# Method in brief: as §1
# [18] = target: Gal(a1-3)Gal(b1-4)[Fuc(a1-3)]GlcNAc
# Method in brief: as §1
# Gal(a1-3)GalNAc = target: Gal(a1-3)GalNAc
# Method in brief: as §1
# [19] = target: Gal(a1-3)[Gal(a1-4)]Gal(b1-4)GlcNAc
# Method in brief: as §1
# Gal(a1-4)Gal(b1-4)Glc = target: Gal(a1-4)Gal(b1-4)Glc
# Method in brief: as §1
# Gal(a1-4)Gal(b1-4)GlcNAc = target: Gal(a1-4)Gal(b1-4)GlcNAc
# Method in brief: as §1
# Gal(a1-4)GlcNAc = target: Gal(a1-4)GlcNAc
# Method in brief: as §1
# Gal(a1-6)Glc = target: Gal(a1-6)Glc
# Method in brief: as §1
# Gal(b1-2)Gal = target: Gal(b1-2)Gal
# Method in brief: as §1
# Gal(b1-3)Gal = target: Gal(b1-3)Gal
# Method in brief: as §1
# Gal(b1-3)GalNAc = target: Gal(b1-3)GalNAc
# Method in brief: as §1
# [20] = target: Gal(b1-3)GalNAc(b1-4)Gal(b1-4)Glc
# Method in brief: as §1
# [21] = target: Gal(b1-3)GalNAc(b1-4)[Neu5Ac(a2-3)]Gal(b1-4)Glc
# Method in brief: as §1
# Gal(b1-3)GlcNAc = target: Gal(b1-3)GlcNAc
# Method in brief: as §1
# [22] = target: Gal(b1-3)GlcNAc(b1-3)Gal(b1-4)Glc
# Method in brief: as §1
# [23] = target: Gal(b1-3)[Fuc(a1-4)]GlcNAc
# Method in brief: as §1
binder,measurement,setting,value
B1,glycan array binding signal (z-score),Fuc(a1-2)Gal,-0.267
same,glycan array binding signal (z-score),Fuc(a1-2)Gal(b1-3)GalNAc,-0.478
same,glycan array binding signal (z-score),[1],-0.48
same,glycan array binding signal (z-score),[2],-0.48
same,glycan array binding signal (z-score),[3],-0.336
same,glycan array binding signal (z-score),Fuc(a1-2)Gal(b1-3)GlcNAc,-0.242
same,glycan array binding signal (z-score),[4],-0.449
same,glycan array binding signal (z-score),Fuc(a1-2)Gal(b1-4)Glc,-0.424
same,glycan array binding signal (z-score),Fuc(a1-2)Gal(b1-4)GlcNAc,-0.132
same,glycan array binding signal (z-score),[5],-0.369
same,glycan array binding signal (z-score),[6],-0.483
same,glycan array binding signal (z-score),[7],-0.471
same,glycan array binding signal (z-score),Fuc(a1-2)GlcNAc,-0.304
same,glycan array binding signal (z-score),Fuc(a1-2)[Gal(a1-3)]Gal,1.27
same,glycan array binding signal (z-score),[8],-0.437
same,glycan array binding signal (z-score),[9],-0.404
same,glycan array binding signal (z-score),[10],-0.266
same,glycan array binding signal (z-score),[11],0.138
same,glycan array binding signal (z-score),[12],-0.156
same,glycan array binding signal (z-score),[13],-0.471
same,glycan array binding signal (z-score),Fuc(a1-3)GlcNAc,-0.302
same,glycan array binding signal (z-score),[14],-0.372
same,glycan array binding signal (z-score),[15],-0.443
same,glycan array binding signal (z-score),[16],3.4
same,glycan array binding signal (z-score),[17],-0.445
same,glycan array binding signal (z-score),Fuc(b1-3)GlcNAc,-0.221
same,glycan array binding signal (z-score),Gal(a1-2)Gal,-0.436
same,glycan array binding signal (z-score),Gal(a1-3)Gal,-0.439
same,glycan array binding signal (z-score),Gal(a1-3)Gal(b1-4)Glc,-0.396
same,glycan array binding signal (z-score),Gal(a1-3)Gal(b1-4)GlcNAc,-0.405
same,glycan array binding signal (z-score),[18],-0.321
same,glycan array binding signal (z-score),Gal(a1-3)GalNAc,0.074
same,glycan array binding signal (z-score),[19],-0.425
same,glycan array binding signal (z-score),Gal(a1-4)Gal(b1-4)Glc,5.38
same,glycan array binding signal (z-score),Gal(a1-4)Gal(b1-4)GlcNAc,2.07
same,glycan array binding signal (z-score),Gal(a1-4)GlcNAc,-0.202
same,glycan array binding signal (z-score),Gal(a1-6)Glc,-0.425
same,glycan array binding signal (z-score),Gal(b1-2)Gal,-0.402
same,glycan array binding signal (z-score),Gal(b1-3)Gal,1.56
same,glycan array binding signal (z-score),Gal(b1-3)GalNAc,-0.26
same,glycan array binding signal (z-score),[20],2.68
same,glycan array binding signal (z-score),[21],-0.449
same,glycan array binding signal (z-score),Gal(b1-3)GlcNAc,0.72
same,glycan array binding signal (z-score),[22],0.752
same,glycan array binding signal (z-score),[23],-0.404
